Source: the supplement of paper PMC3334620
Whole data set: some 33,000 sequences, median “E-score (-0.5 to 0.5)” near -0.054, cut for the highest 2% near 0.39. This is one part of the list.

These sequences were tested against Ylr278c (UniProt Q05854) (assay: PBM E-score (8-mer binding enrichment) (E-score (-0.5 to 0.5)); higher = stronger / more preferred TF binding; most listed sequences are background and not binding sites). Details: protein concentration: 200 nM; construct: GST-DNA-binding domain.
Protocol: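 Universal 'all 10-mer' protein binding microarrays (Agilent AMADID 015681) probed with GST-tagged S. cerevisiae TFs (full-length or DBD) made by in vitro transcription/translation (PURExpress), about 100-200 nM. Bound TF was detected with fluorescent anti-GST. Each ungapped 8-mer (which stands for itself and its reverse complement) is scored by the PBM enrichment score (E-score), a modified Wilcoxon-Mann-Whitney statistic from -0.5 to +0.5, computed with the Universal PBM Analysis Suite. Scale: above 0.35 generally sequence-specific binding.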

| Sequence | PBM E-score |
| --- | --- |
| AAGAGATG | -0.111 |
| GGTGCCAA | -0.224 |
| ACACTTGG | -0.0964 |
| ATCGGCTC | 0.159 |
| ACTTCGAG | 0.0317 |
| AGACGTTA | -0.276 |
| GACCTTGA | -0.218 |
| AGGTAGGG | -0.216 |
| AAACATCA | -0.139 |
| AGAATTCC | 0.283 |
| CTAGCTCA | -0.289 |
| CATGGATC | 0.0628 |
| AGTATGCC | 0.076 |
| AGGAGCAA | -0.0147 |
| CTGGTCGA | -0.224 |
| GATAGTTA | 0.0736 |
| AATTCGAA | -0.0214 |
| ACGGTTTC | 0.0437 |
| ACGTCTCA | -0.131 |
| GCACATAC | -0.0502 |
| CACGTGAG | -0.144 |
| GCCCGATA | 0.0679 |
| CCGCAAAG | 0.131 |
| CGTAGTAA | -0.0394 |
| AATCCAGG | -0.00578 |

| Sequence | PBM E-score |
| --- | --- |
| AATGCGAT | -0.0987 |
| ACAGACGA | -0.081 |
| TCCGAGCA | 0.34 |
| ACCTAGCA | -0.14 |
| CCAAAGGC | -0.192 |
| AAGATATG | -0.0865 |
| GAAGGCAA | -0.0238 |
| ACGTCAGC | -0.154 |
| AGCCAATC | 0.105 |
| GCTATGAC | -0.0428 |
| CCGTCACG | 0.238 |
| GAGTGGAA | 0.155 |
| AGGGCCAA | -0.349 |
| AGCCCATC | -0.103 |
| ACGACACT | -0.111 |
| ACAGTCGC | -0.267 |
| CCACTCTC | 0.0517 |
| CCGACCAA | 0.142 |
| GGGCAGCA | -0.121 |
| AGGCTCGA | -0.174 |
| GCAAGACA | 0.00062 |
| GTTAATAA | 0.0868 |
| CTGTCGAC | -0.158 |
| CCACGGCG | 0.187 |
| TGGCCCAA | -0.207 |

| Sequence | PBM E-score |
| --- | --- |
| ACGAGTGG | -0.0151 |
| AGTGATTG | -0.165 |
| CCGGTGGA | 0.339 |
| ATTCTAGA | -0.171 |
| ACGTCGTA | -0.131 |
| AAGGTAGG | -0.0347 |
| GAGGAAAA | 0.0745 |
| CGATCATA | -0.00591 |
| AACGGTCT | -0.0855 |
| AAACACTG | -0.00492 |
| CAGGTCAA | -0.143 |
| GGACGCCC | 0.25 |
| TGGTGAAA | -0.0989 |
| CCAGGTCG | -0.317 |
| TAAAACCA | -0.191 |
| ATCTGCGC | -0.0599 |
| ACGCGCTA | -0.0327 |
| GCATGCAA | -0.00913 |
| CAGGCAAG | -0.203 |
| CTGCAGCA | -0.151 |
| CGCCGCCC | 0.284 |
| CTTCAGTA | -0.0596 |
| GGGTCTAC | -0.0729 |
| GGTCAGGA | -0.00867 |
| GGATAGCA | 0.0343 |

| Sequence | PBM E-score |
| --- | --- |
| CTTCCTAC | -0.214 |
| CTGTTAGA | -0.133 |
| CTAACTTA | 0.00352 |
| GAACCAGC | -0.126 |
| ATAGTGTG | -0.0618 |
| GCACCTGC | 0.0187 |
| CACGGATC | 0.242 |
| ACCTAAAT | 0.0912 |
| ATCGCAGA | -0.164 |
| ACTAAGCG | 0.031 |
| GTGAGTGA | -0.153 |
| ACCCTAAC | -0.114 |
| ATCGTTTG | -0.0457 |
| AATGATAG | 0.123 |
| GCCAAAGC | -0.166 |
| GACTACAC | -0.109 |
| AAATGGTC | 0.0198 |
| TACCGACA | 0.224 |
| ATCTCAGC | -0.0169 |
| AAAGCCAT | -0.02 |
| CGCATTCC | 0.138 |
| CACGGCAA | 0.182 |
| CACAGGGC | -0.203 |
| AACATCAG | -0.183 |
| TACGGAAA | 0.3 |

| Sequence | PBM E-score |
| --- | --- |
| CGTGCCCA | -0.0667 |
| CTATTTTA | -0.0891 |
| ATCGTTAA | 0.0168 |
| CCAACAAG | -0.162 |
| AGTGGTCC | 0.124 |
| CCTGGTAC | -0.243 |
| GTAATGTA | -0.177 |
| CGTTACAG | -0.196 |
| GTTACACA | -0.23 |
| AGGGTTCA | -0.3 |
| ACTGTACT | -0.249 |
| ATAATAGG | -0.0461 |
| ATCATGTC | 0.0925 |
| CTCTATTA | -0.237 |
| CAGAGGGG | -0.257 |
| AAGGCTAG | -0.233 |
| CGTTGGCC | 0.106 |
| ACCCTGTA | -0.201 |
| CCCACGAC | -0.143 |
| TCGGGGAA | 0.365 |
| CGGGTTAG | 0.156 |
| AATTGAGC | -0.127 |
| CCAACTCC | 0.347 |
| GAGTGAGC | -0.125 |
| GGGAACAA | 0.0828 |

| Sequence | PBM E-score |
| --- | --- |
| CGAGGGAA | 0.00635 |
| CTATTGGC | -0.108 |
| AGTCCGCG | 0.369 |
| AAGGTCAG | -0.187 |
| AAGCACTC | 0.0364 |
| GCGGAGCA | 0.376 |
| AATTTCAC | -0.0766 |
| ACTCGTCT | -0.116 |
| ACATCTTA | -0.305 |
| CGCATAGC | 0.0319 |
| ACGAAGAT | -0.222 |
| ACACTGTC | -0.113 |
| CCTTGCGC | -0.0833 |
| CCTACACG | -0.223 |
| ACAGCAGA | -0.107 |
| CCAAAGGG | -0.0737 |
| GGACATCC | 0.309 |
| GCTTCCCA | -0.187 |
| CTATCAAC | 0.0107 |
| TTAATGAA | -0.0137 |
| CTATGCTA | -0.195 |
| ATATCGAT | -0.0809 |
| AAAGCTTC | -0.0144 |
| ATGTTGAC | -0.0146 |
| GAGTCTAC | -0.128 |

| Sequence | PBM E-score |
| --- | --- |
| CAGGGGGA | -0.401 |
| CAGTGCAA | -0.264 |
| GTTTCTAA | 0.0238 |
| CAAATTTG | 0.0993 |
| TACACCCA | 0.0372 |
| GGCGTTTA | 0.213 |
| GTTTACTA | -0.0491 |
| ATAAATTA | 0.112 |
| GTTGACGA | -0.183 |
| CACCATAC | 0.0327 |
| ACCAGTCA | -0.036 |
| CCAATCCC | 0.149 |
| CAACTCTC | -0.0583 |
| AAGTTAAC | -0.121 |
| CGTATGTC | -0.00839 |
| ACTATCTC | -0.101 |
| AAATTGCA | -0.055 |
| ATTGAGTC | -0.0642 |
| GTCTACGA | -0.251 |
| AGTTGTCC | 0.0866 |
| CGGAACGA | 0.266 |
| GTCTAACA | -0.0407 |
